# Test results as given in paper PMC4336329 (PLoS ONE, 2015).
# The whole screen tested about 310,000 compounds, of which about 14,000 (4.5%) showed an effect of 50% or more. The effect is printed as a negative number. This is one part of the list.
# Target: human ether-à-go-go-related gene (hERG) potassium channel (human, UniProt Q12809)
# Test: primary screen, population patch clamp on CHO cells stably expressing hERG
# 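Further: peak tail current of the secondary pulse compared with the same well before compound.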
# Chain of human ether-à-go-go-related gene (hERG) potassium channel (Q12809 whole entry, looked up): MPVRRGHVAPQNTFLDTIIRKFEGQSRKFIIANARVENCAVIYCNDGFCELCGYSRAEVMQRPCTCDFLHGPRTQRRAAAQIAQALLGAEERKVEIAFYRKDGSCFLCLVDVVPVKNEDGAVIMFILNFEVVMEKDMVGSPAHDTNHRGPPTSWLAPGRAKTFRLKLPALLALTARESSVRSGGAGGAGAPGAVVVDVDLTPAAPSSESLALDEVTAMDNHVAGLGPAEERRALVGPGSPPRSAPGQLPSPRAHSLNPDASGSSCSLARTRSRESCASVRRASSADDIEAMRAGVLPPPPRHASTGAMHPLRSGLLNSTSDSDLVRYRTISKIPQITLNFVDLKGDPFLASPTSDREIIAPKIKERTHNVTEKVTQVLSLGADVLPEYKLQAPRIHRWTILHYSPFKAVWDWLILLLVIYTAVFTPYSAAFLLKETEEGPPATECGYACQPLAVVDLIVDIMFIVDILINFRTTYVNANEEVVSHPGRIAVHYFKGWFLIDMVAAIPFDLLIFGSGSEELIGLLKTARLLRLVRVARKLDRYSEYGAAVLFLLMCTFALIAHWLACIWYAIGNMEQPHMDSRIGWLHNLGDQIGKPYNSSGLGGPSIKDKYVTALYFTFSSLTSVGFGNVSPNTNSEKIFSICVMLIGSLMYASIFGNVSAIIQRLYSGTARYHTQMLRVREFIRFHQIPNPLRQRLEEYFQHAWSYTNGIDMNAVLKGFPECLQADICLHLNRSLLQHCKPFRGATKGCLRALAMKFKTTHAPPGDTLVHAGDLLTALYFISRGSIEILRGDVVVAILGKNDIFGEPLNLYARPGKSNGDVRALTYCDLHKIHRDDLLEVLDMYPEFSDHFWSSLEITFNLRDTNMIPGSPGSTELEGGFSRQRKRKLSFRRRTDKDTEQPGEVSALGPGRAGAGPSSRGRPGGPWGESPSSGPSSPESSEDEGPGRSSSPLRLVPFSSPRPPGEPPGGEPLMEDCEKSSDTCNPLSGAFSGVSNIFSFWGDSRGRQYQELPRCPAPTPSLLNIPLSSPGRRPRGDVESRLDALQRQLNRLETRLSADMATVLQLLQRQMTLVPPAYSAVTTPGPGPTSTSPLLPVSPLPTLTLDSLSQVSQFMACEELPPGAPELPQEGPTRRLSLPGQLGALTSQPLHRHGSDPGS
row,Structure (SMILES),"hERG current change (%, negative = inhibition) at 10uM"
1,COc1ccc(Cl)cc1NC(=O)CSc1nc2ccsc2c(=O)n1CC1CCC(C(=O)O)CC1 (stereo not drawn),-8.91%
2,O=C(CSc1ccc(-c2cccs2)nn1)Nc1ccccc1F,-32.2%
3,CCCNC(=O)NC(=O)CN1CCCC1c1ccc2c(c1)OCCO2 (stereo not drawn),-9.35%
4,COc1ccc2c(c1)C(=O)C(=O)N2,19.5%
5,CCNc1cc(N2CCOCC2)nc(SC)n1,9.95%
6,COc1ccc(S(=O)(=O)N2CCOCC2)cc1NC(=O)Cc1coc2cc(C)c(C)cc12,18.8%
7,c1cncc(CSc2ccc(-c3cccnc3)nn2)c1,9.04%
8,COc1ccc(C(=O)OCN2C(=O)c3ccccc3C2=O)cc1,20.5%
9,CCOC(=O)c1c(C)[nH]c(C(=O)COC(=O)COc2ccccc2C)c1C,-0.0618%
10,CC/C(=N\Nc1nncc2ccccc12)c1ccc(F)cc1,3.91%
11,CCOC(=O)CSc1ncnc2c(C(=O)OCC)c3n(c12)CCC3,-62.6%
12,CC(=O)c1cccc(OCc2cc(C(=O)N3CCSCC3)no2)c1,5.45%
13,O=C(O)c1ccc(-c2cccc(Cl)c2)o1,14.4%
14,Cc1cccc(C(=O)N2CCN(S(=O)(=O)N3CCCCC3)CC2)c1,-16%
15,CN1CCN(C2=NCCO2)CC1,8.19%
16,O=C(C1=C[C@H](c2ccc3c(c2)OCO3)C[C@H](OCCCCO)O1)N1CCN(Cc2ccc3c(c2)OCO3)CC1,-69.1%
17,CCCCN(CCCC)c1nc2ccccc2nc1NS(=O)(=O)c1ccc(NC(C)=O)cc1,8.68%
18,CN(C)/C=C/C(=O)c1ccc(Cl)cc1,-1.7%
19,COc1ccc(S(=O)(=O)N2CCN(C(=O)[C@H](Cc3ccccc3)NC(=O)c3ccco3)CC2)cc1,-28.6%
20,O=C(CSCc1ccc(Cl)cc1Cl)Nc1nccs1,-34.6%
21,COc1nnc(-c2ccc(C)c(S(=O)(=O)NC(C)(C)CO)c2)c2ccccc12,-15.9%
22,CC(=O)c1ccc(OCC(=O)Nc2c(C)nn(-c3ccccc3)c2C)cc1,-2.73%
23,CCOc1cc2nc(-c3ccc(OC)c(OC)c3)nc(N3CC(C)OC(C)C3)c2cc1OC (stereo not drawn),13.5%

row,Structure (SMILES),"hERG current change (%, negative = inhibition) at 10uM"
1,CCOC(=O)C1(C)NC(c2ccccc2F)C2C(=O)N(CC)C(=O)C21 (stereo not drawn),20.6%
2,Cc1ccc(SCC(=O)c2c(C)nc3cc(C)ccn23)cc1,34.5%
3,COc1ccc([N+](=O)[O-])cc1NC(C)C,13%
4,O=C(CSc1nnc2ccccn12)NC(=O)NC1CCCCC1,4.05%
5,CCc1noc(C)c1C(=O)N1CCCC(N2CCN(c3ccccc3F)CC2)C1 (stereo not drawn),3.48%
6,c1ccc(-n2cnc3cc(NCc4ccncc4)ccc32)cc1,-42%
7,Cc1ccsc1/C=c1\sc2ncnn2c1=O,16.9%
8,CCOc1ccc(C(=O)COC(=O)c2cc(=O)[nH]c3ccccc23)cc1,5.75%
9,CN(C)CC/C=C1/c2ccccc2Sc2ccc(Cl)cc21,-8.11%
10,CCc1ccc2c(c1)C1(NN=C(c3cccc4ccccc34)S1)C(=O)N2 (stereo not drawn),19.2%
11,O=C(O)c1ccccc1NC(c1ccccc1)c1ccc(Cl)cc1 (stereo not drawn),19.8%
12,COc1ccc(C2CC(c3cccs3)=NN2C(=O)CSc2nc3c(cnn3-c3ccccc3)c(=O)[nH]2)cc1 (stereo not drawn),7.62%
13,COCCNS(=O)(=O)c1cccc2cccnc12,11.6%
14,Cc1ccc(NC(=O)CSc2nnc(-c3cccs3)n2Cc2ccco2)cc1,-61.6%
15,CSCCC(NS(=O)(=O)c1ccc2c(c1)oc(=O)n2C)C(=O)NCc1ccccc1 (stereo not drawn),4.1%
16,N#Cc1ccc(CSc2nnc3ccccn23)cc1,-0.562%
17,O=C1NC(=S)N(c2ccc(F)cc2)C(=O)/C1=C/c1ccco1,18.4%
18,COCCNc1c(-c2cc3ccc(C)c(C)c3[nH]c2=O)nc2ccccn12,-74.9%
19,COc1ccc(S(=O)(=O)N(C)c2ccc(C(=O)NCC3CCCO3)cc2)cc1OC (stereo not drawn),2.15%
20,O=C(Cn1cnc2c(nnn2Cc2ccc(F)cc2)c1=O)NCc1ccccc1,-11.1%
21,CC(C)(C)OC(=O)N[C@@H](C(=O)OC(C)(C)C)c1ccc(Br)cc1,1.17%
22,COc1ccc2c(CC(=O)NC(Cc3ccc(Cl)cc3)C(=O)O)cc(=O)oc2c1C (stereo not drawn),3.13%
